# Assay results reported in the supplement of paper PMC8728848.
# Some of the results follow.
# B1: Banana lectin (Musa acuminata) (protein)
# chain: MNGAIKVGAWGGNGGSAFDMGPAYRIISVKIFSGDVVDAVDVTFTYYGKTETRHFGGSGGTPHEIVLQEGEYLVGMKGEFGNYHGVVVVGKLGFSTNKKSYGPFGNTGGTPFSLPIAAGKISGFFGRGGDFIDAIGVYLEP
# How the values were obtained:
# Assay in all cases: glycan array binding signal (z-score within array); higher = stronger binding
# Details in all cases: glycan notation: IUPAC condensed, linker removed
# [1] = biological target: Glc(b1-4)Glc
# Procedure, shortened: (§1)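 The binding signal is a Z-score computed within each array. Data were drawn from 3228 arrays in the Consortium for Functional Glycomics database, restricted to those with a known protein sequence. Scores were averaged over arrays of the same protein sequence at different concentrations or buffers, and over linkers, and negative values can be taken as non-binding.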
# [2] = biological target: Glc(b1-6)Glc
# Procedure, shortened: as §1
# [3] = biological target: GlcA(b1-3)Gal
# Procedure, shortened: as §1
# [4] = biological target: GlcA(b1-3)GlcNAc
# Procedure, shortened: as §1
# [5] = biological target: GlcA(b1-6)Gal
# Procedure, shortened: as §1
# [6] = biological target: GlcA3S(b1-3)Gal(b1-4)GlcNAc(b1-2)Man
# Procedure, shortened: as §1
# [7] = biological target: GlcA3S(b1-3)Gal(b1-4)GlcNAc(b1-3)Gal(b1-4)Glc
# Procedure, shortened: as §1
# [8] = biological target: GlcNAc(a1-3)Gal(b1-4)GlcNAc
# Procedure, shortened: as §1
# [9] = biological target: GlcNAc(a1-4)Gal(b1-3)GlcNAc
# Procedure, shortened: as §1
# [10] = biological target: GlcNAc(a1-4)Gal(b1-4)GalNAc
# Procedure, shortened: as §1
# [11] = biological target: GlcNAc(a1-4)Gal(b1-4)GlcNAc
# Procedure, shortened: as §1
# [12] = biological target: GlcNAc(a1-4)Gal(b1-4)GlcNAc(b1-3)Gal(b1-4)Glc
# Procedure, shortened: as §1
# [13] = biological target: GlcNAc(a1-4)Gal(b1-4)GlcNAc(b1-3)Gal(b1-4)GlcNAc
# Procedure, shortened: as §1
# [14] = biological target: GlcNAc(a1-4)Gal(b1-4)GlcNAc(b1-3)Gal(b1-4)GlcNAc(b1-3)Gal(b1-4)GlcNAc
# Procedure, shortened: as §1
# [15] = biological target: GlcNAc(a1-4)Gal(b1-4)GlcNAc(b1-3)Gal(b1-4)[Fuc(a1-3)]GlcNAc(b1-3)Gal(b1-4)[Fuc(a1-3)]GlcNAc
# Procedure, shortened: as §1
# [16] = biological target: GlcNAc(a1-6)Gal(b1-4)GlcNAc
# Procedure, shortened: as §1
# [17] = biological target: GlcNAc(b1-2)Gal(b1-3)GalNAc
# Procedure, shortened: as §1
# [18] = biological target: GlcNAc(b1-2)Man(a1-3)[GlcNAc(b1-2)Man(a1-6)]Man(b1-4)GlcNAc(b1-4)GlcNAc
# Procedure, shortened: as §1
# [19] = biological target: GlcNAc(b1-2)Man(a1-3)[GlcNAc(b1-2)Man(a1-6)]Man(b1-4)GlcNAc(b1-4)[Fuc(a1-6)]GlcNAc
# Procedure, shortened: as §1
# [20] = biological target: GlcNAc(b1-2)Man(a1-3)[GlcNAc(b1-4)][GlcNAc(b1-2)Man(a1-6)]Man(b1-4)GlcNAc(b1-4)GlcNAc
# Procedure, shortened: as §1
# [21] = biological target: GlcNAc(b1-2)Man(a1-3)[GlcNAc(b1-4)][GlcNAc(b1-2)Man(a1-6)]Man(b1-4)GlcNAc(b1-4)[Fuc(a1-6)]GlcNAc
# Procedure, shortened: as §1
# [22] = biological target: GlcNAc(b1-2)[GlcNAc(b1-4)]Man(a1-3)[GlcNAc(b1-2)Man(a1-6)]Man(b1-4)GlcNAc(b1-4)GlcNAc
# Procedure, shortened: as §1
# [23] = biological target: GlcNAc(b1-2)[GlcNAc(b1-4)]Man(a1-3)[GlcNAc(b1-4)][GlcNAc(b1-2)Man(a1-6)]Man(b1-4)GlcNAc(b1-4)GlcNAc
# Procedure, shortened: as §1
# [24] = biological target: GlcNAc(b1-2)[GlcNAc(b1-4)]Man(a1-3)[GlcNAc(b1-4)][GlcNAc(b1-2)[GlcNAc(b1-6)]Man(a1-6)]Man(b1-4)GlcNAc(b1-4)GlcNAc
# Procedure, shortened: as §1
# [25] = biological target: GlcNAc(b1-2)[GlcNAc(b1-4)]Man(a1-3)[GlcNAc(b1-4)][GlcNAc(b1-2)[GlcNAc(b1-6)]Man(a1-6)]Man(b1-4)GlcNAc(b1-4)[Fuc(a1-6)]GlcNAc
# Procedure, shortened: as §1
# [26] = biological target: GlcNAc(b1-2)[GlcNAc(b1-6)]Man(a1-6)[GlcNAc(b1-2)Man(a1-3)]Man(b1-4)GlcNAc(b1-4)GlcNAc
# Procedure, shortened: as §1
# [27] = biological target: GlcNAc(b1-2)[GlcNAc(b1-6)]Man(a1-6)[GlcNAc(b1-2)Man(a1-3)]Man(b1-4)GlcNAc(b1-4)[Fuc(a1-6)]GlcNAc
# Procedure, shortened: as §1
# [28] = biological target: GlcNAc(b1-2)[GlcNAc(b1-6)]Man(a1-6)[GlcNAc(b1-4)][GlcNAc(b1-2)Man(a1-3)]Man(b1-4)GlcNAc(b1-4)GlcNAc
# Procedure, shortened: as §1
# [29] = biological target: GlcNAc(b1-3)Fuc
# Procedure, shortened: as §1
# [30] = biological target: GlcNAc(b1-3)Gal
# Procedure, shortened: as §1
# [31] = biological target: GlcNAc(b1-3)Gal(b1-3)GalNAc
# Procedure, shortened: as §1
# [32] = biological target: GlcNAc(b1-3)Gal(b1-4)Glc
# Procedure, shortened: as §1
# [33] = biological target: GlcNAc(b1-3)Gal(b1-4)GlcNAc
# Procedure, shortened: as §1
# [34] = biological target: GlcNAc(b1-3)Gal(b1-4)GlcNAc(b1-2)Man(a1-3)[GlcNAc(b1-3)Gal(b1-4)GlcNAc(b1-2)Man(a1-6)]Man(b1-4)GlcNAc(b1-4)GlcNAc
# Procedure, shortened: as §1
# [35] = biological target: GlcNAc(b1-3)Gal(b1-4)GlcNAc(b1-2)Man(a1-3)[GlcNAc(b1-3)Gal(b1-4)GlcNAc(b1-2)Man(a1-6)]Man(b1-4)GlcNAc(b1-4)[Fuc(a1-6)]GlcNAc
# Procedure, shortened: as §1
# [36] = biological target: GlcNAc(b1-3)Gal(b1-4)GlcNAc(b1-2)[GlcNAc(b1-3)Gal(b1-4)GlcNAc(b1-6)]Man(a1-6)[GlcNAc(b1-3)Gal(b1-4)GlcNAc(b1-2)Man(a1-3)]Man(b1-4)GlcNAc(b1-4)GlcNAc
# Procedure, shortened: as §1
# [37] = biological target: GlcNAc(b1-3)Gal(b1-4)GlcNAc(b1-3)Gal(b1-4)GlcNAc
# Procedure, shortened: as §1
# [38] = biological target: GlcNAc(b1-3)Gal(b1-4)GlcNAc(b1-3)Gal(b1-4)GlcNAc(b1-2)Man(a1-3)[GlcNAc(b1-3)Gal(b1-4)GlcNAc(b1-3)Gal(b1-4)GlcNAc(b1-2)Man(a1-6)]Man(b1-4)GlcNAc(b1-4)GlcNAc
# Procedure, shortened: as §1
# [39] = biological target: GlcNAc(b1-3)Gal(b1-4)GlcNAc(b1-3)Gal(b1-4)GlcNAc(b1-2)Man(a1-3)[GlcNAc(b1-3)Gal(b1-4)GlcNAc(b1-3)Gal(b1-4)GlcNAc(b1-2)Man(a1-6)]Man(b1-4)GlcNAc(b1-4)[Fuc(a1-6)]GlcNAc
# Procedure, shortened: as §1
# [40] = biological target: GlcNAc(b1-3)Gal(b1-4)GlcNAc(b1-3)Gal(b1-4)GlcNAc(b1-2)[GlcNAc(b1-3)Gal(b1-4)GlcNAc(b1-3)Gal(b1-4)GlcNAc(b1-6)]Man(a1-6)[GlcNAc(b1-3)Gal(b1-4)GlcNAc(b1-3)Gal(b1-4)GlcNAc(b1-2)Man(a1-3)]Man(b1-4)GlcNAc(b1-4)[Fuc(a1-6)]GlcNAc
# Procedure, shortened: as §1
# [41] = biological target: GlcNAc(b1-3)Gal(b1-4)GlcNAc(b1-3)Gal(b1-4)GlcNAc(b1-3)Gal(b1-4)GlcNAc(b1-2)Man(a1-3)[GlcNAc(b1-3)Gal(b1-4)GlcNAc(b1-3)Gal(b1-4)GlcNAc(b1-3)Gal(b1-4)GlcNAc(b1-2)Man(a1-6)]Man(b1-4)GlcNAc(b1-4)GlcNAc
# Procedure, shortened: as §1
# [42] = biological target: GlcNAc(b1-3)Gal(b1-4)GlcNAc(b1-3)Gal(b1-4)GlcNAc(b1-3)Gal(b1-4)GlcNAc(b1-2)Man(a1-3)[GlcNAc(b1-3)Gal(b1-4)GlcNAc(b1-3)Gal(b1-4)GlcNAc(b1-3)Gal(b1-4)GlcNAc(b1-2)Man(a1-6)]Man(b1-4)GlcNAc(b1-4)[Fuc(a1-6)]GlcNAc
# Procedure, shortened: as §1
# [43] = biological target: GlcNAc(b1-3)Gal(b1-4)GlcNAc(b1-3)Gal(b1-4)GlcNAc(b1-3)Gal(b1-4)GlcNAc(b1-2)[GlcNAc(b1-3)Gal(b1-4)GlcNAc(b1-3)Gal(b1-4)GlcNAc(b1-3)Gal(b1-4)GlcNAc(b1-6)]Man(a1-6)[GlcNAc(b1-3)Gal(b1-4)GlcNAc(b1-3)Gal(b1-4)GlcNAc(b1-3)Gal(b1-4)GlcNAc(b1-2)Man(a1-3)]Man(b1-4)GlcNAc(b1-4)[Fuc(a1-6)]GlcNAc
# Procedure, shortened: as §1
# [44] = biological target: GlcNAc(b1-3)Gal(b1-4)GlcNAc(b1-3)Gal(b1-4)GlcNAc(b1-3)Gal(b1-4)GlcNAc(b1-3)Gal(b1-4)GlcNAc(b1-2)Man(a1-3)[GlcNAc(b1-3)Gal(b1-4)GlcNAc(b1-3)Gal(b1-4)GlcNAc(b1-3)Gal(b1-4)GlcNAc(b1-3)Gal(b1-4)GlcNAc(b1-2)Man(a1-6)]Man(b1-4)GlcNAc(b1-4)GlcNAc
# Procedure, shortened: as §1
# [45] = biological target: GlcNAc(b1-3)Gal(b1-4)GlcNAc(b1-3)Gal(b1-4)GlcNAc(b1-3)Gal(b1-4)GlcNAc(b1-3)Gal(b1-4)GlcNAc(b1-2)Man(a1-3)[GlcNAc(b1-3)Gal(b1-4)GlcNAc(b1-3)Gal(b1-4)GlcNAc(b1-3)Gal(b1-4)GlcNAc(b1-3)Gal(b1-4)GlcNAc(b1-2)Man(a1-6)]Man(b1-4)GlcNAc(b1-4)[Fuc(a1-6)]GlcNAc
# Procedure, shortened: as §1
binder,measurement,setting,value
B1,glycan array binding signal (z-score),[1],-0.194
same,glycan array binding signal (z-score),[2],-0.098
same,glycan array binding signal (z-score),[3],-0.191
same,glycan array binding signal (z-score),[4],-0.187
same,glycan array binding signal (z-score),[5],-0.194
same,glycan array binding signal (z-score),[6],-0.196
same,glycan array binding signal (z-score),[7],-0.195
same,glycan array binding signal (z-score),[8],0.764
same,glycan array binding signal (z-score),[9],0.003
same,glycan array binding signal (z-score),[10],-0.174
same,glycan array binding signal (z-score),[11],-0.097
same,glycan array binding signal (z-score),[12],-0.144
same,glycan array binding signal (z-score),[13],-0.098
same,glycan array binding signal (z-score),[14],0.058
same,glycan array binding signal (z-score),[15],-0.075
same,glycan array binding signal (z-score),[16],-0.189
same,glycan array binding signal (z-score),[17],-0.194
same,glycan array binding signal (z-score),[18],0.41
same,glycan array binding signal (z-score),[19],-0.15
same,glycan array binding signal (z-score),[20],-0.198
same,glycan array binding signal (z-score),[21],-0.193
same,glycan array binding signal (z-score),[22],-0.188
same,glycan array binding signal (z-score),[23],-0.196
same,glycan array binding signal (z-score),[24],-0.196
same,glycan array binding signal (z-score),[25],-0.196
same,glycan array binding signal (z-score),[26],-0.17
same,glycan array binding signal (z-score),[27],-0.125
same,glycan array binding signal (z-score),[28],-0.2
same,glycan array binding signal (z-score),[29],-0.192
same,glycan array binding signal (z-score),[30],-0.194
same,glycan array binding signal (z-score),[31],-0.188
same,glycan array binding signal (z-score),[32],-0.193
same,glycan array binding signal (z-score),[33],-0.193
same,glycan array binding signal (z-score),[34],-0.162
same,glycan array binding signal (z-score),[35],-0.16
same,glycan array binding signal (z-score),[36],-0.14
same,glycan array binding signal (z-score),[37],-0.194
same,glycan array binding signal (z-score),[38],-0.183
same,glycan array binding signal (z-score),[39],-0.172
same,glycan array binding signal (z-score),[40],-0.17
same,glycan array binding signal (z-score),[41],-0.179
same,glycan array binding signal (z-score),[42],-0.171
same,glycan array binding signal (z-score),[43],-0.173
same,glycan array binding signal (z-score),[44],-0.164
same,glycan array binding signal (z-score),[45],-0.11
